Results as given in patent US20230322953A1 (HARBOUR BIOMED SHANGHAI, published 2023).

Tests used:
[1] = target: T1, human 4-1BB (human, UniProt Q07011 24-255); assay: flow cytometry, CHO-K1/hu 4-1BB cells, after incubation in human serum at 37 C, day two
T1 construct: whole, on cells; also called CD137; TNFRSF9

[2] = target: T1, human 4-1BB; assay: flow cytometry, CHO-K1/hu 4-1BB cells, after incubation in human serum at 37 C, day one
[3] = target: T1, human 4-1BB; assay: flow cytometry, CHO-K1/hu 4-1BB cells, after incubation in human serum at 37 C, day seven
[4] = target: T1, human 4-1BB; assay: flow cytometry, CHO-K1/hu 4-1BB cells, after incubation in human serum at 37 C, day fourteen
[5] = target: T1, human 4-1BB; assay: flow cytometry, CHO-K1/hu 4-1BB cells
[6] = target: T1, human 4-1BB; assay: flow cytometry, CHO-K1/hu 4-1BB cells, after incubation in human serum at 37 C, day four
[7] = target: T1, human 4-1BB; assay: as above; remark: listed apart in the source
[8] = target: T1, human 4-1BB; assay: flow cytometry, CHO-K1/hu 4-1BB cells, after incubation in human serum at 37 C, day one; remark: listed apart in the source
[9] = target: T1, human 4-1BB; assay: flow cytometry, CHO-K1/hu 4-1BB cells, after incubation in human serum at 37 C, day two; remark: listed apart in the source
[10] = target: T1, human 4-1BB; assay: flow cytometry, CHO-K1/hu 4-1BB cells, after incubation in human serum at 37 C, day seven; remark: listed apart in the source
[11] = target: T1, human 4-1BB; assay: flow cytometry, CHO-K1/hu 4-1BB cells, after incubation in human serum at 37 C, day fourteen; remark: listed apart in the source

T1 sequence (Q07011 24-255): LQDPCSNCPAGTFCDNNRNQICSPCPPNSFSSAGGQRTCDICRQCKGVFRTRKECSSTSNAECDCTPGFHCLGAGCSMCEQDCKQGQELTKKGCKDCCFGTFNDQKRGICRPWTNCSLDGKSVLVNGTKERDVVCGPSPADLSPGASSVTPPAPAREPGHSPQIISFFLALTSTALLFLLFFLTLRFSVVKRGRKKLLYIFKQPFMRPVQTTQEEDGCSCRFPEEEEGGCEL

| Binder | EC50 [1] | EC50 [2] | EC50 [3] | EC50 [4] | EC50 [5] | Maximum MFI [5] | EC50 [6] | EC50 [7] | EC50 [8] | EC50 [9] | EC50 [10] | EC50 [11] |
| --- | --- | --- | --- | --- | --- | --- | --- | --- | --- | --- | --- | --- |
| PR003334 (bispecific antibody, human IgG1, kappa, PR002408 IgG with PR001758 VH at C-terminus of heavy chain, linker H1_15-RT, human IgG1 (L234A, L235A); also called B7H4x4-1BB bispecific antibody, IgG-VH tetravalent symmetric structure (5)) light: EIVMTQSPATLSVSPGERATLSCRASQSISSNLGWYQQKPGQAPRLLIYGASTRATGIPARFSGSGSGTEFTLTISSLQSEDFAVYYCQQYQSWPPLTFGGGTKVEIKRTVAAPSVFIFPPSDEQLKSGTASVVCLLNNFYPREAKVQWKVDNALQSGNSQESVTEQDSKDSTYSLSSTLTLSKADYEKHKVYACEVTHQGLSSPVTKSFNRGEC heavy: QVQLVESGGGVVQPGRSLRLSCAASGFTFRSFGMHWVRQAPGKGLEWVAVISYDASNEYYADSVKGRFIISRDNSKDTLYLQMNSLRAGDTAVYYCAKGGGLRWYFAYWGQGTLVTVSSASTKGPSVFPLAPSSKSTSGGTAALGCLVKDYFPEPVTVSWNSGALTSGVHTFPAVLQSSGLYSLSSVVTVPSSSLGTQTYICNVNHKPSNTKVDKKV[human IgG1 Fc with changes not given here]EPKSSDKTHTPPPPPRTEVQLLESGGGLVQLGGSLRLSCAASGFTFSRYAMTWVRQAPEKGLEWVSSISGSGDDTYYGDSVKGRFTISRDNSQNTVYLQMNSLRAEDTAVYFCAKEKAGTTGDYYYNVDVWGQGTTVTVSS | 0.769 nM | 0.841 nM | 0.68 nM | 0.851 nM | 0.483 nM | 163000 | 0.607 nM |  |  |  |  |  |
| PR003335 (bispecific antibody, human IgG1, kappa, PR002408 IgG with PR001760 VH at C-terminus of heavy chain, linker H1_15-RT, human IgG1 (L234A, L235A); also called B7H4x4-1BB bispecific antibody, IgG-VH tetravalent symmetric structure (5)) light: EIVMTQSPATLSVSPGERATLSCRASQSISSNLGWYQQKPGQAPRLLIYGASTRATGIPARFSGSGSGTEFTLTISSLQSEDFAVYYCQQYQSWPPLTFGGGTKVEIKRTVAAPSVFIFPPSDEQLKSGTASVVCLLNNFYPREAKVQWKVDNALQSGNSQESVTEQDSKDSTYSLSSTLTLSKADYEKHKVYACEVTHQGLSSPVTKSFNRGEC heavy: QVQLVESGGGVVQPGRSLRLSCAASGFTFRSFGMHWVRQAPGKGLEWVAVISYDASNEYYADSVKGRFIISRDNSKDTLYLQMNSLRAGDTAVYYCAKGGGLRWYFAYWGQGTLVTVSSASTKGPSVFPLAPSSKSTSGGTAALGCLVKDYFPEPVTVSWNSGALTSGVHTFPAVLQSSGLYSLSSVVTVPSSSLGTQTYICNVNHKPSNTKVDKKV[human IgG1 Fc with changes not given here]EPKSSDKTHTPPPPPRTEVQLVESGGGVVQPGGSLRLSCAASGFTFSNYAMTWVRQAPEKGLEWVSSISGSGVSTYYADSVKGRFTISRDNSKNTLYLQMTRLTAEDTAVYFCAKEGSSETDDHYYNVDVWGQGTTVTVSS |  |  |  |  | 0.74 nM and 1.35 nM |  |  | 0.624 nM | 0.47 nM | 0.457 nM | 0.82 nM | 0.561 nM |

“And” between values parts separate entries of the source, which are not always exact repeats. Equal entries are not always repeated.
